# Test results published in PubChem BioAssay AID488969 (Vanderbilt High Throughput Screening Facility, 2010).
# The full ranking holds about 110,000 compounds; the median of “z-score” is about -0.1, and the highest 2% start at about 2. This is one part of the list. The source made the active and inactive calls.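 Rule for the calls: active = z-score in the third read window above 3 or below -3; inactive = the rest.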
# Molecular target: Metabotropic glutamate receptor 8 (Rattus norvegicus) (UniProt P70579)
# Sequence of UniProt P70579 (P70579 whole entry, looked up): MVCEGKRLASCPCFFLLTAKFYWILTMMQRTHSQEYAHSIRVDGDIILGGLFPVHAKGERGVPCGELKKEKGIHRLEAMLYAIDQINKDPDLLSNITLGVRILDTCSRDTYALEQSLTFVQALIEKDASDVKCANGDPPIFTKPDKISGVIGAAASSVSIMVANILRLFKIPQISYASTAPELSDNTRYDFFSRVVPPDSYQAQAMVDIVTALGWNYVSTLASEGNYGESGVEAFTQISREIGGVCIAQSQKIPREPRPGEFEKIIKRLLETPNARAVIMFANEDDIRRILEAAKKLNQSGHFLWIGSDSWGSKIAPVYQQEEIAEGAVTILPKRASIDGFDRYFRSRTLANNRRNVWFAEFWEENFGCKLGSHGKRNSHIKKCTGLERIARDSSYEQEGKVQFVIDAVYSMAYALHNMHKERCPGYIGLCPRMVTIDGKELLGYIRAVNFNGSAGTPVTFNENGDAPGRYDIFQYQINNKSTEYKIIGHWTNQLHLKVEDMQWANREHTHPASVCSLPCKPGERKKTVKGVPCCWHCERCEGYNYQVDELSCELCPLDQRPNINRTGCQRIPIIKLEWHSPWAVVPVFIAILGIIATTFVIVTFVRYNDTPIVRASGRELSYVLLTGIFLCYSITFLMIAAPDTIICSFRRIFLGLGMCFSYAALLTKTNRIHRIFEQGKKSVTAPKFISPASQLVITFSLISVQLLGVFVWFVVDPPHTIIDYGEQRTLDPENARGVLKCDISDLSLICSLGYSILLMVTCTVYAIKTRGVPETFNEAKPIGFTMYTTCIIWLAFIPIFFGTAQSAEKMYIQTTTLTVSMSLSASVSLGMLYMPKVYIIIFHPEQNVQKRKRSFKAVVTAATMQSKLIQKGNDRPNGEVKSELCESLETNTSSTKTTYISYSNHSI
# Assay: mGluR8 Gi/Go-coupled signaling modulation – cell-based, rat, thallium flux, HTS, primary screen (AID 488969)
# Conditions: HEK293 rat mGluR8, GIRK (G protein-gated inwardly rectifying potassium channel) thallium flux, FluoZin2; at 10 µM; stronger effect = higher value; submaximal glutamate (EC20) added with thallium
row,SMILES,z-score
1,CC(Oc1ccc(Cl)cc1)C(=O)/C=C/N(C)C (stereo not drawn),0.0414
2,Cc1ccc(/C=N/NC(=O)CCSc2ccccc2)cc1,0.31
3,CC(Sc1nc(-c2ccccc2)cc(C(F)(F)F)n1)C(=O)NCc1ccco1 (stereo not drawn),1.22
4,O=C(CSc1nc2ccccc2c(=O)n1-c1ccccc1)NCc1ccco1,-1.73
5,Fc1cccc(CSc2nc3ncccc3[nH]2)c1,-0.0206
6,CC(C)C1=C2CCCCC2NC(=O)N1 (stereo not drawn),0.143
7,CCc1oc2c(C)c(O)ccc2c(=O)c1-c1ccc2ccccc2n1,-0.0989
8,COc1ccc(CNC(=O)C(c2ccncc2)N(C(=O)Cc2cccs2)c2ccccc2C)cc1 (stereo not drawn),-0.607
9,CC1Cc2ccccc2N1S(=O)(=O)c1cccs1 (stereo not drawn),-1.12
10,Cc1cccc(OCCOCCSc2ncccn2)c1,0.623
11,c1ccc(-c2nc(CSc3nnc(-c4cccs4)o3)cs2)cc1,0.246
12,COC(=O)c1cc2oc(C)cc2n1CC(=O)Nc1ccc(C)c(C)c1,-0.125
13,COc1cccc(C(=O)N(CN2CCCC2=O)c2cccc(Cl)c2)c1OC,-0.257
14,Cc1cc(N2C(=O)CCC2=O)n(-c2ccccc2)n1,-0.0495
15,O=C1CCC(=O)N1CCC(c1ccc(F)cc1)c1ccco1 (stereo not drawn),0.178
16,O=C(N/N=C/c1c[nH]c2ccccc12)C1CC1(c1ccccc1)c1ccccc1 (stereo not drawn),-0.618
17,O=C(CSc1nc(N2CCCCC2)nc(N2CCCCC2)n1)c1ccccc1,-0.0244
18,O=C(O/N=C\c1ccc(N2CCCCC2)c([N+](=O)[O-])c1)c1ccc(Cl)cc1Cl,-0.494
19,COc1ccc(NC(=O)c2nc3nccc(C)n3n2)cn1,-0.0689
20,Cc1cccnc1NC(=O)C1CCCN(S(=O)(=O)c2ccc3c(c2)oc(=O)n3C)C1 (stereo not drawn),0.166
21,CC1(C)CC(c2nc(-c3ccc(Cl)cc3)cs2)CCS1 (stereo not drawn),0.117
22,CN(C)S(=O)(=O)c1ccc(C(=O)Nc2ccc(F)cc2F)cc1,-0.255
23,CC(C)c1ccccc1NC(=O)COc1ccc(C(=O)NCCc2ccccc2)cc1,-0.165

row,SMILES,z-score
1,CN(C)CC(C)(C)CNC(=S)NCc1ccc2c(c1)OCO2,-0.249
2,O=C(c1ccc(C(=O)N2CCCCCC2)cc1)N1CCCCCC1,0.224
3,Cc1ccc(-c2csc(N3N=C(c4ccccc4)/C(=C\c4ccc(N(C)C)cc4)C3=O)n2)cc1,0.277
4,CCOC(=O)c1cc(-c2ccccc2)sc1NC(=S)Nc1cccc(C)n1,-0.085
5,O=C(N/N=C/c1cc2ccccc2nc1Cl)[C@H]1C[C@@H]1c1ccccc1,-0.657
6,COC(=O)c1ccc(CS(=O)(=O)c2ccccc2C)o1,0.118
7,CC(C)(C)NC(=O)/C=N/O,-0.25
8,Cc1cc(C(=O)OCC(=O)N2CCCC2)c2ccccc2n1,0.184
9,CCC(Oc1ccccc1)C(=O)N1CCC(C(N)=O)CC1 (stereo not drawn),-0.00452
10,COc1cccc(/C=N/n2c(N)nc3ccccc32)c1OC,-1.06
11,COCCN(C(=O)c1csnn1)C(C(=O)NC1CCCCC1)c1sccc1C (stereo not drawn),0.325
12,COc1ccc(-c2cc(C(=O)NN)n(-c3ccccc3)n2)cc1,-0.0183
13,Cc1ccc(N2C(=O)N(CC(=O)NC(c3ccccc3)c3ccccc3)C(=O)C2C)cc1 (stereo not drawn),-0.506
14,Cn1c(=O)c2c(ncn2CC(=O)N/N=C/c2ccco2)n(C)c1=O,1.59
15,CC(CCc1ccccc1)NC(=O)C1CCN(S(=O)(=O)N2CCCCC2)CC1 (stereo not drawn),0.0266
16,COC(=O)c1ccc(-n2cnc(Cl)n2)c(F)c1,-0.211
17,O=C1c2cccnc2C(O)N1Cc1cccs1 (stereo not drawn),-0.156
18,CC(C)CCNC(=O)CN(CCCN1CCOCC1)C(=O)Cn1nnc(-c2ccc(F)cc2)n1,-0.562
19,Cc1occc1C(=O)NCCc1cccc(Cl)c1,-0.377
20,O=C(N/N=C\c1cccc(Cl)c1)c1ccc(Cn2cccn2)o1,-0.386
21,CCOC(=O)CNC(=O)CSc1nc(Cc2cccs2)nc2ccccc12,1.26
22,Cc1cc(-n2c(C)cc(C(=O)CN3C(=O)NC4(CCCCCC4)C3=O)c2C)no1,-0.193
23,CCCCCC1CC(/C(C)=N/NC(N)=O)OC1=O (stereo not drawn),0.0545

row,SMILES,z-score
1,Cc1ccc(NC(=S)NC2CCCC2)cc1C,-0.0629
2,CC1SCCN1S(=O)(=O)c1ccc2ccccc2c1 (stereo not drawn),-0.104
3,O=C1CCc2cc(S(=O)(=O)NC(C(=O)NCc3cccnc3)c3ccccc3)ccc2N1 (stereo not drawn),-0.174
4,COc1ccc(N(C(=O)CCl)C(C(=O)NC2CCCCC2)c2cccnc2)cc1 (stereo not drawn),-0.11
5,COCCNC(=O)Cn1cc(C(=O)c2cccs2)c2ccccc21,-0.255
6,CSCC[C@@H](C(=O)NCc1cccs1)N1Cc2ccccc2C1=O,-0.0163
7,Nc1nonc1-n1nnc(C(=O)N/N=C/c2ccc(Br)cc2)c1CSC1=NCCS1,1.27
8,CC(=O)c1cc(F)c(N2CCN(c3ccc([N+](=O)[O-])cc3F)CC2)cc1C,0.648
9,O=C1CC2CS(=O)(=O)CC2N1c1ccc(Oc2ccccc2)cc1 (stereo not drawn),-0.00875
10,CSc1ncccc1C(=O)OCC(=O)N(C)C1CCS(=O)(=O)C1 (stereo not drawn),-0.109
11,Cc1noc(/C=C/N(C)C)c1S(=O)(=O)N1CCc2ccccc21,-0.557
12,COC(=O)C1=NN(c2ccc(Cl)cc2)C2C(=O)N(c3ccccc3OC)C(=O)C12 (stereo not drawn),-0.00475
13,CCC(C)NC(=S)NNC(=O)c1ccc(C(C)(C)C)cc1 (stereo not drawn),0.0253
14,O=C(COc1ccccc1)N1CCN(C(=O)c2ccco2)CC1,0.264
15,Cc1nn(C(=O)Cn2ccc([N+](=O)[O-])n2)c(C)c1Br,-0.0558
16,COc1ccc(CCNS(=O)(=O)c2ccc(S(=O)(=O)N3CCCC3)cc2)cc1OC,-0.803
17,CC1CCCCN1S(=O)(=O)c1ccc(S(=O)(=O)N2CCN(c3ccccc3)CC2)cc1 (stereo not drawn),-0.215
18,Cc1ccccc1NC(=O)CC1(c2ccc(N(C)C)cc2)C(=O)c2ccccc2C1=O,0.0393
19,Cc1cccc(NC(=O)C2CCN(S(=O)(=O)c3cccc4cccnc34)CC2)c1,-0.323
20,CN(C)S(=O)(=O)c1ccc2c(c1)nc(CCC(=O)NCC1CCCCC1)n2C,0.000798
21,O=C(CN1CCOCC1)Nc1ccc(OCc2ccccc2)cc1,0.323
22,O=C(/C=C/c1cccc([N+](=O)[O-])c1)NCCSCc1c(Cl)cccc1Cl,-0.218
23,CCNC(=S)NC1CC2CCCC(C1)N2Cc1ccco1 (stereo not drawn),-0.317

row,SMILES,z-score
1,NNC(=O)CC12CC3CC(C1)CC(n1ncnn1)(C3)C2,-0.194
2,COc1cc(CNc2nc(C)c([N+](=O)[O-])c(C)c2C#N)cc(OC)c1OC,-0.238
3,CCc1ccc(Cn2nnc(C(=O)Nc3ccc(OC)cc3OC)c2N)cc1,-0.354
4,CCN(CC)CCn1c(=N)n(CCO)c2ccccc21,0.377
5,CCOC(=O)N1CCN(CCC(=O)Nc2ccc(OC(F)(F)F)cc2)CC1,0.144
6,CCC(C)(NC(=O)CNC(C)=O)C(=O)NC1CCCCC1 (stereo not drawn),1.28
7,CC(=Nc1ccccc1)C1=C(O)CCCC1=O,-0.104
8,CC(C)c1ccc(C2NC(C(=O)O)CS2)cc1 (stereo not drawn),-0.475
9,O=c1c(C(c2ccccc2)c2c(O)sc3ccccc3c2=O)c(O)sc2ccccc12,active: 7.03
10,Cc1ccc(NC(=O)C2CC(=O)N(Cc3ccccc3)C2)cc1S(=O)(=O)N1CCCCCC1 (stereo not drawn),-0.141
11,COc1cc(/C=C/C(=O)O)cc(S(=O)(=O)Nc2cccc(SC)c2)c1OC,-0.0051
12,Cc1ccccc1NC(=O)OCc1cccnc1Sc1ccc(Cl)cc1,-0.033
13,COc1ccc(CS(=O)(=O)/C(Cl)=C(/Cl)C(=O)Nc2ccc(OC)nc2)cc1,-0.34
14,CCn1c(SCC(=O)c2ccc(Br)cc2)nnc1C(C)NC(=O)Cc1ccc(OC)cc1 (stereo not drawn),0.0709
15,CCc1nnc(NS(=O)(=O)c2ccc(N/C=C/C(=O)c3ccc(C)cc3)cc2)s1,-0.0758
16,CCCCC(=O)Nc1ccc2c(c1)OCCO2,-0.139
17,COC(=O)c1sc2ccccc2c1NC(=O)c1ccc(S(=O)(=O)N2CCCCC2)cc1,-0.105
18,Cc1cc[n+](-c2nc([O-])n(-c3ccccc3)c2C=O)cc1,0.651
19,Cc1ccc(C(=O)CSc2nc3cccnc3n2C)cc1,-1.01
20,COC(=O)C(C)N(C(=O)c1cccc2ccccc12)c1c(C)cccc1C (stereo not drawn),-1.36
21,C=CCOc1ccc(/C(O)=C2\C(=O)C(=O)N(CCCOC)C2c2ccc(O)c(OC)c2)cc1 (stereo not drawn),-0.44
22,COc1ccc(NC(=O)CN2CCCCC2)cc1,0.473
23,O=C(C(c1ccccc1)N1CCOCC1)N1CCOCC1 (stereo not drawn),-0.177

row,SMILES,z-score
1,COc1cc(/C=N/NC(=O)C(=O)NCC2CCCO2)ccc1O (stereo not drawn),0.158
2,CC/C(=N/Nc1ccccc1)c1cnnc(SC)n1,-0.222
3,Cc1cccc(NC(=O)COC(=O)c2ccccc2-c2nc3ccccc3s2)c1C,-0.272
4,Cc1ccc(N2C(=O)c3ccccc3C2=O)cc1C,-0.283
5,Cn1nnnc1SCC(=O)c1ccco1,0.0313
6,Cn1c(-c2ccc(Br)cc2)cnc1NCc1cccnc1,-0.358
7,CCCCNc1nc(CC)c2c(c1C#N)CCCC2,-0.796
8,COc1ccc(-c2nnc(SCC(=O)NCc3ccco3)o2)cc1,0.651
9,CCOC(=O)CNc1ccc2c(c1)OCO2,-0.395
10,CN(CC(=O)N1CCCc2c1c(=O)oc1ccc(O)cc21)Cc1ccccc1,-0.0903
11,CCN1C(=O)C(CC(=O)NC2CCCCC2)N(CC)C1=O (stereo not drawn),-0.508
12,O=C(Nc1ccc(Cl)cn1)c1cc2ccccc2o1,-0.372
13,CC1(C)CC(=O)c2sc(NC(=O)CN3C(=O)CCC3=O)nc2C1,2.59
14,CC1=C(C(=O)OC2CCCCC2)C(c2ccco2)C2=C(CC(C)(C)CC2=O)N1 (stereo not drawn),0.0288
15,O=C(NC1CCCC1)C(c1ccsc1)N(C(=O)Cc1cccs1)c1ccccc1 (stereo not drawn),0.427
16,O=C(N/N=C/c1ccc(-c2cccc(C(F)(F)F)c2)o1)c1ccccc1Br,-0.459
17,CCOC(=O)c1cnn(-c2ccccc2)c1-c1ccccc1,-0.214
18,Cc1cccc(OCCn2c(NC(=O)c3ccco3)nc3ccccc32)c1,1.66
19,CC(C)(C)c1nnc(NC(=O)Cc2ccc(Br)cc2)s1,0.693
20,O=C(CSc1ncn(-c2ccccc2)n1)Nc1nc2ccccc2s1,-0.407
21,CCOC(=O)c1cnc(SCC(=O)N2CCN(c3ccccc3)CC2)nc1N,-0.108
